Results: the supplement of paper PMC7335073
Whole data set: some 4,100 sequences, median “relative CpG methylation activity (normalised to average over all NNNCGNNN flanks)” near 0.87, cut for the highest 2% near 2.4. The list shows a part of the results.

Each sequence was assayed against DNMT3A catalytic domain (mouse) (UniProt O88508) (assay: relative CpG methylation activity (normalised to average over all NNNCGNNN flanks) (relative (1 = mean)); higher = more methylation of the central CpG). Conditions: system: in vitro, murine catalytic domain; CpG state: hemimethylated substrate pool; residues: 608-908.
Method in brief: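 Murine DNMT3A or DNMT3B catalytic domain methylated pooled dsDNA substrates, each carrying a central CpG within 10 random flanking nucleotides, with 0.8 mM S-adenosyl-L-methionine in HEPES pH 7.5 buffer at 37 °C for 60 min. Proteinase K treatment, BsaI-HFv2 digestion, hairpin ligation, bisulfite conversion and two-step PCR preceded Illumina sequencing. Relative methylation activity is the average methylation of a flanking context divided by the mean across all contexts, where a context spans three bases on each side, and every experiment was repeated twice independently.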

First: CCTCGCTT
Second: CAACGGCG
The “relative CpG methylation activity” value of the first is higher: 1.75 for the first, 0.65 for the second.

Going from ACTCGGGG to ATACGAGA, the “relative CpG methylation activity” value rises from 0.426 to 1.65.

Compared with AAACGTCT, GTCCGCAT is higher in “relative CpG methylation activity” value: 1.02 for the first, 1.37 for the second.

Going from ATTCGCCC to ACGCGTGG, the “relative CpG methylation activity” value falls from 2.29 to 0.288.

Going from AAACGGAA to TACCGACC, the “relative CpG methylation activity” value falls from 0.803 to 0.79.

Compared with TCTCGAGT, AATCGAAA is lower in “relative CpG methylation activity” value: 0.778 for the first, 0.447 for the second.

Compared with AATCGGGG, CCGCGTCA is higher in “relative CpG methylation activity” value: 0.0633 for the first, 1.37 for the second.

First: AGTCGCTT
Second: TAGCGAGA
The “relative CpG methylation activity” value of the first is higher: 1.03 for the first, 0.51 for the second.

Compared with CGACGATT, CGCCGGAC is higher in “relative CpG methylation activity” value: 0.644 for the first, 0.958 for the second.

First: AATCGAAG
Second: TATCGCGG
The “relative CpG methylation activity” value of the first is lower: 0.111 for the first, 0.258 for the second.

Going from CAACGACC to CAGCGTCA, the “relative CpG methylation activity” value falls from 0.804 to 0.574.

Going from CGACGAAG to TCTCGGCT, the “relative CpG methylation activity” value rises from 0.435 to 0.538.

First: CGCCGTGA
Second: GAACGTAG
The “relative CpG methylation activity” value of the first is lower: 0.439 for the first, 0.707 for the second.

First: ACTCGTCA
Second: CGCCGCCG
The “relative CpG methylation activity” value of the first is higher: 1.77 for the first, 1.35 for the second.

Compared with TTTCGATC, GTTCGCGC is higher in “relative CpG methylation activity” value: 1.11 for the first, 1.17 for the second.

Compared with TCACGGAC, GTACGTTG is lower in “relative CpG methylation activity” value: 1.78 for the first, 0.784 for the second.

Compared with ACTCGCGC, CGACGACG is lower in “relative CpG methylation activity” value: 1.26 for the first, 0.689 for the second.

Going from TTGCGCAT to CCCCGCTT, the “relative CpG methylation activity” value rises from 1.21 to 1.66.

First: TGACGTTG
Second: CCACGCGT
The “relative CpG methylation activity” value of the first is lower: 0.495 for the first, 1.09 for the second.

Compared with AGGCGAAC, CATCGTAC is lower in “relative CpG methylation activity” value: 1.05 for the first, 0.536 for the second.

Going from TATCGGCG to AGTCGACC, the “relative CpG methylation activity” value falls from 0.49 to 0.328.

Compared with TATCGCCC, GCACGCAG is lower in “relative CpG methylation activity” value: 1.77 for the first, 0.978 for the second.

Compared with GTTCGACA, TCTCGCTT is higher in “relative CpG methylation activity” value: 0.963 for the first, 2.09 for the second.

First: AGGCGCGG
Second: TGGCGGAC
The “relative CpG methylation activity” value of the first is lower: 0.461 for the first, 0.592 for the second.

Compared with TTACGCTC, CATCGCTG is lower in “relative CpG methylation activity” value: 2.74 for the first, 0.848 for the second.

Going from AGGCGTCT to CCACGTTC, the “relative CpG methylation activity” value rises from 1.04 to 1.24.

Compared with TCACGCCA, CATCGTTT is lower in “relative CpG methylation activity” value: 1.78 for the first, 0.474 for the second.

Compared with CTCCGTAT, TACCGTCA is higher in “relative CpG methylation activity” value: 1.01 for the first, 1.45 for the second.

Compared with TGGCGTTA, GTCCGTGT is higher in “relative CpG methylation activity” value: 0.37 for the first, 0.376 for the second.

Going from GGCCGTTT to ATCCGTCC, the “relative CpG methylation activity” value rises from 0.267 to 2.61.

Going from TACCGGCC to ACGCGGGT, the “relative CpG methylation activity” value falls from 0.938 to 0.542.

First: TTTCGCTC
Second: ACGCGCGG
The “relative CpG methylation activity” value of the first is higher: 2.02 for the first, 0.42 for the second.

First: CGACGGAT
Second: CGTCGGTA
The “relative CpG methylation activity” value of the first is higher: 0.66 for the first, 0.511 for the second.

Going from GTACGTGG to TCGCGAAG, the “relative CpG methylation activity” value falls from 0.872 to 0.36.

Compared with CCGCGTTA, ACTCGCTC is higher in “relative CpG methylation activity” value: 0.814 for the first, 1.79 for the second.

First: TTCCGAAG
Second: GGCCGCCA
The “relative CpG methylation activity” value of the first is higher: 1.45 for the first, 1.4 for the second.

Compared with CGTCGGAA, CTCCGAAA is higher in “relative CpG methylation activity” value: 0.698 for the first, 1.63 for the second.

Going from TCACGCCG to AGTCGGTA, the “relative CpG methylation activity” value falls from 2.08 to 0.57.

Compared with GTGCGCCC, GACCGCTG is lower in “relative CpG methylation activity” value: 2.22 for the first, 1.2 for the second.

First: TTTCGGTG
Second: GCGCGCGG
The “relative CpG methylation activity” value of the first is higher: 0.682 for the first, 0.181 for the second.

First: ATACGATT
Second: GGTCGTTC
The “relative CpG methylation activity” value of the first is higher: 1.36 for the first, 0.368 for the second.

First: GACCGTTA
Second: CATCGCAC
The “relative CpG methylation activity” value of the first is lower: 0.872 for the first, 1.1 for the second.

Going from CTGCGGGG to TCCCGCAA, the “relative CpG methylation activity” value rises from 0.732 to 0.962.
